Experimental data reported in article PMC10920896 (2024).

Key:
[1] = biological target: T1, biotinylated murine wildtype gp130 (D1-D6) with C-terminal biotin acceptor peptide and hexa-histidine tag (murine, UniProt Q00560 23-617, biotin on the C-terminal biotin acceptor peptide (in vitro, BirA)); test: SPR
T1 chain: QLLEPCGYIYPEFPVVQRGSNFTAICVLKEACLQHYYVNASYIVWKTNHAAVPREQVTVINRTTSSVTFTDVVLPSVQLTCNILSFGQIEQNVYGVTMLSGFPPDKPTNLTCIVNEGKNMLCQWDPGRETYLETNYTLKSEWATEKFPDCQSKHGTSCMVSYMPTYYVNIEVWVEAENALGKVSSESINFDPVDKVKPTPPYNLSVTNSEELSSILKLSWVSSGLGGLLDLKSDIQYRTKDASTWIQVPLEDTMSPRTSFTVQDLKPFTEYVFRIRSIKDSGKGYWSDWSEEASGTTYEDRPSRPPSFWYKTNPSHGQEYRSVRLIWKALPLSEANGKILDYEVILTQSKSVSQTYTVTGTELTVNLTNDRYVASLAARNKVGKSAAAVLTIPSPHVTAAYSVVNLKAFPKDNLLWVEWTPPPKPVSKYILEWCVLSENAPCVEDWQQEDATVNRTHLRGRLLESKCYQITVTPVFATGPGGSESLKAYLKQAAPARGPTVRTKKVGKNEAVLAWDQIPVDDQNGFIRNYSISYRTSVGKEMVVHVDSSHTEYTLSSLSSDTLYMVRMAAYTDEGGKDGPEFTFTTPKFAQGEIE

[2] = biological target: T2, biotinylated murine gp130_(P496L) (D1-D6) with C-terminal biotin acceptor peptide and hexa-histidine tag (murine, UniProt Q00560 23-617, P496L, biotin on the C-terminal biotin acceptor peptide (in vitro, BirA)); test: SPR
[3] = biological target: T1, biotinylated murine wildtype gp130 …; test: SPR; equilibrium fit
[4] = biological target: T2, biotinylated murine gp130_(P496L) …; test: SPR; equilibrium fit
[5] = biological target: T1, biotinylated murine wildtype gp130 …; test: SPR; kinetic fit
[6] = biological target: T2, biotinylated murine gp130_(P496L) …; test: SPR; kinetic fit

B1: HypIL-6 (human IL-6 fused by a short linker to domains D2 and D3 of IL-6Rα, single chain) (other)
chain: EEPQLSCFRKSPLSNVVCEWGPRSTPSLTTKAVLLVRKFQNSPAEDFQEPCQYSQESQKFSCQLAVPEGDSSFYIVSMCVASSVGSKFSKTQTFQGCGILQPDPPANITVTAVARNPRWLSVTWQDPHSWNSSFYRLRFELRYRAERSKTFTTWMVKDLQHHCVIHDAWSGLRHVVQLRAQEEFGQGEWSEWSPEAMGT[about 200 residues omitted here]
Question: With B1 as the binder, how does the koff [1] read?
Answer: 0.00097 s⁻¹

Question: And the koff [2]?
Answer: 0.00079 s⁻¹

Question: What about the Kd [3] of the same binder?
Answer: 5.5 nM

Question: What about the Kd [4] of the same binder?
Answer: 5.8 nM

Question: What about the Kd [5] of the same binder?
Answer: 0.37 nM

Question: What about the Kd [6] of the same binder?
Answer: 0.31 nM
